The record followed here is the supplement of paper PMC12217912.

This is one part of the list. The full chains were built here from the parent and the listed change. Values near 0.05 are background.

B1: TEV protease; numbered along this chain (parent)
chain: MGESLFKGPRDYNPISSSICHLTNESDGHTTSLYGIGFGPFIITNKHLFRRNNGTLVVQSLHGVFKVKDTTTLQQHLVDGRDMIIIRMPKDFPPFPQKLKFREPQREERICLVTTNFQTKSMSSMVSDTSCTFPSGDGIFWKHWIQTKDGQCGSPLVSTRDGFIVGIHSASNFTNTNNYFTSVPKNFMELLTNQEAQQWVSGWRLNADSVLWGGHKVFMVKPEEPFQPVKEATQL

The variants in this experiment derive from B1. The experiment is described as follows: raw area under fraction-flipped curve 0-4 h after induction (AUC4h, not background-subtracted), DNA-recorder readout of cleavage of the substrate (dimensionless); higher = more cleavage of the substrate by the protease variant. The following applies: temperature: 34 °C; time window: 0-4 h after rhamnose induction. How it is done: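 In vivo DNA recorder in E. coli TOP10(DE3) ΔrhaA at 34 °C. Each TEVp single-site mutant (parent TEVp 0) is paired with a single-site variant of the 7-mer TEVs (canonical ENLYFQ|S). The substrate sits between flexible linkers in a Bxb1-sfGFP-TEVs-SsrA fusion, so cleavage stabilises Bxb1 and speeds flipping of a recombination array, read by NGS. The value is the raw area under the fraction-flipped curve over 0-4 h after rhamnose induction (AUC4h), with ≥20 reads per time point. It is not background-subtracted; inactive controls average about 0.047.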
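Further: Bxb1 expression induced with 0.2% (w/v) L-rhamnose at OD600 near 0.5, cultures sampled hourly, flipped fraction per protease–substrate barcode pair counted by paired-end Illumina sequencing.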

Take MGESLFKGPRDYNPISSSICHLTNESDGHTTSLYGIGFGPFIITNKHLFRRNNGTLVVQSLHGVFKVKDTTTLQQHLVDGRDMIIIRMPKDFPPFPQKLKFREPQREERICLVTTNFQTKSMSSMVSDTSCTFPSGDGIFWKHWIQTKDGQCGSPLVSTRDGFIVGIWSASNFTNTNNYFTSVPKNFMELLTNQEAQQWVSGWRLNADSVLWGGHKVFMVKPEEPFQPVKEATQL [H168W]: the “area with substrate ENLCFQS” value was 0.0673, the “area with substrate ENLDFQS” value stood at 0.0606, the “area with substrate ENLEFQS” value was determined as 0.0628 and the “area with substrate ENLFFQS” value worked out at 0.0856. Also, the “area with substrate ENLGFQS” value worked out at 0.0725, the “area with substrate ENLHFQS” value worked out at 0.063, the “area with substrate ENLIFQS” value was 0.0548 and the “area with substrate ENLKFQS” value was 0.062. For the same variant, the “area with substrate ENLLFQS” value came out at 0.0693, the “area with substrate ENLMFQS” value amounted to 0.0576, the “area with substrate ENLNFQS” value was determined as 0.0636 and the “area with substrate ENLPFQS” value was 0.0546. The “area with substrate ENLQFQS” value was 0.0628, the “area with substrate ENLRFQS” value came out at 0.0389, the “area with substrate ENLSFQS” value was determined as 0.0582 and the “area with substrate ENLTFQS” value was 0.062. In addition, the “area with substrate ENLWFQS” value came to 0.0615.
Regarding MGESLFKGPRDYNPISSSICHLTNESDGHTTSLYGIGFGPFIITNKHLFRRNNGTLVVQSLHGVFKVKDTTTLQQHLVDGRDMIIIRMPKDFPPFPQKLKFREPQREERICLVTTNFQTKSMSSMVSDTSCTFPSGDGIFWKHWIQTKDGQCGSPLVSTRDGFIVGIHSASNFTNTNNYFTSVPKNFMELLTNQEAQIWVSGWRLNADSVLWGGHKVFMVKPEEPFQPVKEATQL [Q198I], the “area with substrate ENLCFQS” value came out at 0.0758, the “area with substrate ENLDFQS” value is 0.0628, the “area with substrate ENLEFQS” value was 0.0731 and the “area with substrate ENLFFQS” value was 0.0751. The “area with substrate ENLGFQS” value came to 0.0455, the “area with substrate ENLHFQS” value came to 0.0623, the “area with substrate ENLKFQS” value came out at 0.0724 and the “area with substrate ENLLFQS” value came out at 0.0815. The “area with substrate ENLNFQS” value came out at 0.0747, the “area with substrate ENLPFQS” value amounted to 0.0651, the “area with substrate ENLQFQS” value stood at 0.0688 and the “area with substrate ENLRFQS” value amounted to 0.0773. Besides, the “area with substrate ENLSFQS” value was determined as 0.054, the “area with substrate ENLTFQS” value worked out at 0.0901 and the “area with substrate ENLVFQS” value turned out to be 0.0685.
In the case of MGESLFKGPRDYNPISSSICHLTNESDGHTTSLYGIGFGPFIITNKHLFRRNNGTLVVQSLHGVFKVKDTTTLQQHLVDGRDMIIIRMPKDFPPFPQKLKFREPQREERICLVTTNFQTKSMSSMVSDTSCTFPSGDGIFWKHWIQTKDGQCGSPLVSTRDGFIVGIHSASNFTNTNNYFTSVPKNFMELLTNQEAQQHVSGWRLNADSVLWGGHKVFMVKPEEPFQPVKEATQL [W199H], the “area with substrate ENLCFQS” value worked out at 0.0668, the “area with substrate ENLDFQS” value worked out at 0.0482, the “area with substrate ENLEFQS” value was determined as 0.0618 and the “area with substrate ENLFFQS” value came out at 0.0642. In addition, the “area with substrate ENLHFQS” value is 0.0633, the “area with substrate ENLIFQS” value worked out at 0.0547, the “area with substrate ENLLFQS” value stood at 0.0685 and the “area with substrate ENLMFQS” value came out at 0.0619. The “area with substrate ENLRFQS” value worked out at 0.0715 and the “area with substrate ENLWFQS” value stood at 0.0622.
With MGESLFKGPRDYNPISSSICHLTNESDGHTTSLYGIGFGPFIITNKHLFRRNNGTLVVQSLHGVFKVKDTTTLQQHLVDGRDMIIIRMPKDFPPFPQKLKFREPQREERICLVTTNFQTKSMSSMVSDTSCTFPSGDGIFWKHWIQTKDGQCGSPLVSTRDGFIVGIHSASNFTNTNNYFTSVPKNFMELLTNQEAQQWVSGWRLNADSVLWGGHKVFEVKPEEPFQPVKEATQL [M219E], the “area with substrate ENLCFQS” value is 0.0803, the “area with substrate ENLDFQS” value is 0.0696, the “area with substrate ENLEFQS” value is 0.0628 and the “area with substrate ENLFFQS” value was 0.0666. In addition, the “area with substrate ENLHFQS” value stood at 0.103, the “area with substrate ENLKFQS” value came out at 0.0615, the “area with substrate ENLLFQS” value stood at 0.0582 and the “area with substrate ENLMFQS” value worked out at 0.0902. Besides, the “area with substrate ENLNFQS” value was 0.0713, the “area with substrate ENLPFQS” value is 0.0643, the “area with substrate ENLRFQS” value was 0.0151 and the “area with substrate ENLSFQS” value was found to be 0.0606. In addition, the “area with substrate ENLVFQS” value worked out at 0.0623 and the “area with substrate ENLWFQS” value amounted to 0.0669.
In the case of MGESLFKGPRDYNPISSSICHLTNESDGHTTSLYGIGFGPFIITNKHLFRRNNGTLVVQSLHGVFKVKDTTTLQQHLVDGRDMIIIRMPKDFPPFPQKLKFREPQREERICLVTTNFQTKSMSSMVSDTSCTFPSGDGIFWKHWIQTKDGQCGSPLVSTRDGFIVGIHSAENFTNTNNYFTSVPKNFMELLTNQEAQQWVSGWRLNADSVLWGGHKVFMVKPEEPFQPVKEATQL [S171E], the “area with substrate ENLCFQS” value was determined as 0.0565, the “area with substrate ENLFFQS” value worked out at 0.0231, the “area with substrate ENLPFQS” value is 0.0607 and the “area with substrate ENLQFQS” value came out at 0.0618. Moreover, the “area with substrate ENLRFQS” value came out at 0.0427 and the “area with substrate ENLVFQS” value is 0.061.
MGESLFKGPRDYNPISSSICHLTNESDGHTTSLYGIGFGPFIITNKHLFRRNNGTLVVQSLHGVFKVKDTTTLQQHLVDGRDMIIIRMPKDFPPFPQKLKFREPQREERICLVTTNFQTKSMSSMVSDTSCTFPSGDGIFWKHWIQTKDGQCGSPLVSTRDGFIVGIHSASNFTNTNNYFTSVPKNFMELLTNQEAQQWVSGWRLNADSVLWGGHKVFMVKPEFPFQPVKEATQL [E224F]: the “area with substrate ENLCFQS” value was determined as 0.0697, the “area with substrate ENLDFQS” value stood at 0.0539, the “area with substrate ENLEFQS” value was found to be 0.0638 and the “area with substrate ENLHFQS” value amounted to 0.0671. Moreover, the “area with substrate ENLIFQS” value turned out to be 0.104, the “area with substrate ENLKFQS” value worked out at 0.0724, the “area with substrate ENLQFQS” value worked out at 0.066 and the “area with substrate ENLRFQS” value came out at 0.0638. Further, the “area with substrate ENLVFQS” value amounted to 0.0663.
Turning to MGESLFKGPRDYNPISSSICHLTNESDGHTTSLYGIGFGPFIITNKHLFRRNNGTLVVQSLHGVFKVKDTTTLQQHLVDGRDMIIIRMPKDFPPFPQKLKFREPQREERICLVTTNFQTKSMSSMVSDTSCTFPSGDGIFWKHWIQTKDGQCGSPLVSTRDGFIVGIHSASNFTNTNNYFTSVPKNFMELLTNQEAQQWVSGWRLNADSVLWGGHKVFMVQPEEPFQPVKEATQL [K221Q], the “area with substrate ENLCFQS” value came out at 0.0815, the “area with substrate ENLDFQS” value turned out to be 0.0846, the “area with substrate ENLFFQS” value is 0.0721 and the “area with substrate ENLHFQS” value was found to be 0.0506. Further, the “area with substrate ENLKFQS” value stood at 0.0703, the “area with substrate ENLNFQS” value was determined as 0.0598, the “area with substrate ENLPFQS” value turned out to be 0.0626 and the “area with substrate ENLRFQS” value turned out to be 0.0812. Moreover, the “area with substrate ENLSFQS” value was 0.0676.
For MGESLFKGPRDYNPISSSICHLTNESDGHTTSLYGIGFGPFIITNKHLFRRNNGTLVVQSLHGVFKVKDTTTLQQHLVDGRDMIIIRMPKDFPPFPQKLKFREPQREERICLVTTNFQTKSMSSMVSDTSCTFPSGDGIFWKHWIQTKDGQCGSPLVSTRDGFIVGIHSASNFTNTNNYFTSVPKNFMELLTNQEAQQWVSGWRLNADSVLWGGHKVFMVIPEEPFQPVKEATQL [K221I], the “area with substrate ENLCFQS” value was 0.0632, the “area with substrate ENLDFQS” value stood at 0.0721, the “area with substrate ENLEFQS” value came out at 0.0679 and the “area with substrate ENLFFQS” value was 0.072. The “area with substrate ENLGFQS” value came out at 0.0693, the “area with substrate ENLHFQS” value was found to be 0.0485, the “area with substrate ENLIFQS” value worked out at 0.0718 and the “area with substrate ENLKFQS” value came out at 0.09. The “area with substrate ENLLFQS” value amounted to 0.0617, the “area with substrate ENLMFQS” value was determined as 0.0717, the “area with substrate ENLNFQS” value came out at 0.0693 and the “area with substrate ENLPFQS” value is 0.0711. For the same variant, the “area with substrate ENLQFQS” value came out at 0.0555, the “area with substrate ENLRFQS” value came out at 0.0692, the “area with substrate ENLSFQS” value is 0.0496 and the “area with substrate ENLTFQS” value is 0.0566. Moreover, the “area with substrate ENLVFQS” value came out at 0.0912 and the “area with substrate ENLWFQS” value was found to be 0.0426.
As to MGESLFKGPRDYNPISSSICHLTNESDGHTTSLYGIGFGPFIITNKHLFRRNNGTLVVQSLHGVFKVKDTTTLQQHLVDGRDMIIIRMPKDFPPFPQKLKFREPQREERICLVTTNFQTKSMSSMVSDTSCTFPSGDGIFWKHWIQTKDGQCGSPLVSTRDGFIVGIHSASNFTNTNNYFTSTPKNFMELLTNQEAQQWVSGWRLNADSVLWGGHKVFMVKPEEPFQPVKEATQL [V183T], the “area with substrate ENLCFQS” value was 0.0795, the “area with substrate ENLDFQS” value was determined as 0.0523, the “area with substrate ENLEFQS” value was 0.0614 and the “area with substrate ENLFFQS” value amounted to 0.0594. Further, the “area with substrate ENLGFQS” value was 0.0553, the “area with substrate ENLHFQS” value was 0.103, the “area with substrate ENLIFQS” value was found to be 0.0791 and the “area with substrate ENLKFQS” value is 0.0789. Further, the “area with substrate ENLNFQS” value amounted to 0.0623, the “area with substrate ENLPFQS” value worked out at 0.0732, the “area with substrate ENLRFQS” value worked out at 0.0585 and the “area with substrate ENLSFQS” value amounted to 0.054. In addition, the “area with substrate ENLWFQS” value came to 0.0643.
